# Laboratory results taken from PubChem BioAssay (NCATS).
# Inconclusive results are not listed. Unless noted, calls come from the whole dose curve; as a rule, active = well fitted curve in the direction sought with a large enough effect; inconclusive = small, poorly fitted or top-dose-only effect, or another doubt; inactive = no such curve, though single readings can be large; an effect the other way counts as inactive or inconclusive. Not every entry of the source has a single result; some have several. This list holds those alone. There may be further records. Values that stand side by side are repeated measurements in other runs, samples, wells, individuals or studies. Marks in square brackets tell the records apart. Letters hold for one entry only. A structure can be active in one record and inactive in another.
# Tests used:
# [1] = qHTS for Inhibitors of the Functional Ribonucleoprotein Complex (vRNP) of Lassa (LASV) Arenavirus: Viability assay - alamar blue signal for LASV Primary Screen (AID 1347083; calls by dose curve; tested in HEK293 reporter line; note: nearly all actives have a fitted effect of over 80% in size; note: potency is the fitted concentration of half-maximal effect)
# [2] = qHTS of pediatric cancer cell lines to identify multiple opportunities for drug repurposing: Primary screen for SK-N-SH cells (AID 1347098); note: nearly all actives have a fitted effect of over 65% in size; note: potency is the fitted concentration of half-maximal effect
# Excerpt: Drug repurposing or repositioning has been offered as a strategy for drug development in oncology programs. This approach has special potential for childhood cancers and other rare or orphan diseases, where the expected return on new drug development has been a disincentive to pharmaceuticals.
# In this project we exploit the poly-pharmacology of drugs to discover new indications via phenotypic screening of a panel of 19 well-characterized cell lines derived from solid tumors seen in children and adolescents. The goal is to identify approved drugs with previously unrecognized anticancer properties that has the potential to reveal new mechanisms and biological processes involved in carcinogenesis or drug resistance. We employed a titration-based paradigm (quantitative high-throughput screening or qHTS), where all compounds were tested at multiple concentrations for their effect on cell viability. […] We screened the NIH Chemical Genomics Center (NCGC) Pharmaceutical Collection (NPC) and Mechanism Interrogation Plate (MIPE) small molecule collections of approved and investigational compounds against these cell lines; and measured metabolically active cells after 48 hours of compound treatment as a proxy for cell viability. […]
# [1] Shen, M et al. Quantitative high-throughput phenotypic screening of pediatric cancer cell lines identifies multiple opportunities for drug repurposing. […]
# [3] = qHTS of pediatric cancer cell lines to identify multiple opportunities for drug repurposing: Primary screen for BT-12 cells (AID 1347101); note: nearly all actives have a fitted effect of over 25% in size; note: potency is the fitted concentration of half-maximal effect
# In short: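 Cells (500-1,000/well) rested 5 h, then received compounds for 48 h; metabolically active cells were measured by CellTiter-Glo luminescence. Final concentrations spanned up to 46 µM (MIPE, 11-point) or 0.59 nM-46 µM (NPC, 8-point) in primary screens, 11-point in follow-ups.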
# [4] = qHTS profiling for inhibitors of Plasmodium falciparum proliferation (AID 504749);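 note: 0% = DMSO vehicle and full inhibition = artemisinin control; nearly all actives have a fitted effect of over 60% in size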; settings: P. falciparum in erythrocytes, SYBR Green DNA, 72 h, parasite line A; at 28.7 µM (top of the series)
# In short: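 Each compound contacts P. falciparum-infected red blood cells for 72 h at 37 C; lysis buffer (Tris, EDTA, saponin, Triton X, SYBR Green I) is added and fluorescence measured next morning; values normalized to controls.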
smiles,measurement,setting,value
O=C(NCC1CCCCN1)c1cc(OCC(F)(F)F)ccc1OCC(F)(F)F (stereo not given),Potency,[1],active: 30.6 µM [sample A] and inactive [sample B]
Nc1ncn([C@H]2C[C@H](O)[C@@H](CO)O2)c(=O)n1,Potency,[1],inactive [sample A] and active: 6.85 µM [sample B]
CC(C)c1cccc(C(C)C)c1O,Potency,[2],active: 7.64 µM [sample A] and inactive [sample B]
same,Potency,[3],active: 385 nM [sample A] and inactive [sample B]
CN1C(=O)NC(=O)C(C)(C2=CCCCC2)C1=O (stereo not given),"activity, negative = inhibition",[4],inactive: -10.6% [sample A] and inactive: 1.13% [sample B]
